# According to PubChem BioAssay (NCATS):
# The list shows a part of the results. The main result of the screen is listed elsewhere. These columns were measured beside it and carry no call. For part of these data: Compounds called inactive in the main read-out are mostly missing here. The note in brackets gives the kind of curve behind each potency; many fits are weak.
# Columns and labels:
# [1] = biological target: Catechol O-methyltransferase (Homo sapiens) (UniProt P21964); test: Confirmatory Screen for Target Class Profiling of Small Molecule Inhibitors of Methyltransferases (AID 1745852); conditions: MTase-Glo luminescence, SAH detection, recombinant enzyme; measured here: COMT inhibition potency;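 note: inhibitor potency for blocking SAH production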
# UniProt P21964, sequence (P21964 whole entry, looked up): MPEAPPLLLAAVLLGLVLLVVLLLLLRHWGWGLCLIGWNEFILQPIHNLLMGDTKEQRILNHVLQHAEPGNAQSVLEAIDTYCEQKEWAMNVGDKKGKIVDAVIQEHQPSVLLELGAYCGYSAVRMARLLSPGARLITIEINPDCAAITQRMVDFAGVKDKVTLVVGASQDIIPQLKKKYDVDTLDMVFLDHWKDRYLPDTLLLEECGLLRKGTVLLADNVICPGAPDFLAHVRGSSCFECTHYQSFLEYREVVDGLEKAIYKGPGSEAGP
# [2] = biological target: Histamine N-methyltransferase (Homo sapiens) (UniProt P50135); test: as above; conditions: MTase-Glo luminescence, SAH detection, recombinant enzyme; measured here: HNMT inhibition potency
# UniProt P50135, sequence (P50135 whole entry, looked up): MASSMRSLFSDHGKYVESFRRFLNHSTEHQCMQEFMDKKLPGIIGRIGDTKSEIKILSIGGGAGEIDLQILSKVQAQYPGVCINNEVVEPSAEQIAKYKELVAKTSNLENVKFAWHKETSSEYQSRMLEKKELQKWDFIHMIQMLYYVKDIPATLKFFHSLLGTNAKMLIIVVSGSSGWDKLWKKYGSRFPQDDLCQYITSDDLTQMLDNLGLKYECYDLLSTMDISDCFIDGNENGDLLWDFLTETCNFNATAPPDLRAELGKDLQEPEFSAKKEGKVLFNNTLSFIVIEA
# [3] = biological target: Nicotinamide N-methyltransferase (Homo sapiens) (UniProt P40261); test: as above; conditions: MTase-Glo luminescence, SAH detection, recombinant enzyme; measured here: NNMT inhibition potency
# UniProt P40261, sequence (P40261 whole entry, looked up): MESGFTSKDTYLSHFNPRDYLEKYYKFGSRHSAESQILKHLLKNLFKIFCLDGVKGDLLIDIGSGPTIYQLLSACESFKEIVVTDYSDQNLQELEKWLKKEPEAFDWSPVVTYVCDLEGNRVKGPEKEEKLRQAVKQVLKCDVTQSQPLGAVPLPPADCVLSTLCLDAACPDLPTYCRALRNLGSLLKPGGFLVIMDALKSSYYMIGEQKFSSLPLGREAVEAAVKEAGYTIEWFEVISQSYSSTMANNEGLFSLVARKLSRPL
# [4] = biological target: Phenylethanolamine N-methyltransferase (Homo sapiens) (UniProt P11086); test: as above; conditions: MTase-Glo luminescence, SAH detection, recombinant enzyme; measured here: PNMT inhibition potency
# UniProt P11086, sequence (P11086 whole entry, looked up): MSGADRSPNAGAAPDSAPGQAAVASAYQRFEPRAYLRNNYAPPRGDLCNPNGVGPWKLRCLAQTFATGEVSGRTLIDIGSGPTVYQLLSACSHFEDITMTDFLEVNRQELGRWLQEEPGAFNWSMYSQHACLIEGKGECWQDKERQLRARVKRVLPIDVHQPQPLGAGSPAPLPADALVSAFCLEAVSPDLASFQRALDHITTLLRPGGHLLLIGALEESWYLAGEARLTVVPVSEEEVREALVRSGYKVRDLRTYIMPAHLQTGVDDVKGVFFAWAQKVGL
# [5] = qHTS drug screen for cell cycle checkpoint inhibitors in PARPi-resistant BRCA-mutant ovarian cancer cell lines. (AID 1963452); conditions: PEO1/OlaR viability, CellTiter-Glo luminescence, 96 h
# In short: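 PEO1, PEO4 and PEO1/OlaR ovarian cancer cells, 600 per well, exposed 96 h at 37C to a dilution series. Viability read by CellTiter-Glo luminescence, normalized to DMSO and empty wells; activity summarized as Z-AUC.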
# [6] = qHTS for identification of novel therapeutic agents for treatment of microphthalmiaassociated transcription factor (MiT) renal cell carcinoma (RCC) (AID 1963991); conditions: CellTiter-Glo, 48 h; for z-score: stronger effect = lower value
# In short: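 Three TFE3-fusion RCC lines (UOK109, UOK124, UOK145), 500 cells/well in complete medium, were treated with MIPE 4.0 compounds for 48 hours at 37 C. Viability was by CellTiter-Glo luminescence, normalized to DMSO (100%) and empty wells (0%); curves fitted over 11 concentrations.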
# [7] = measured here: PEO1 parental viability
# [8] = TFE3-RCC UOK109 viability, measured here: UOK109 Z-AUC
# [9] = TFE3-RCC viability, measured here: UOK124 Z-AUC
# [10] = TFE3-RCC viability, measured here: UOK124 cell viability
# [11] = TFE3-RCC viability, measured here: UOK145 Z-AUC
# [12] = TFE3-RCC viability, measured here: UOK145 cell viability
# Tags give direction and shape of the fitted curve.
Compound,IC50 [1],IC50 [2],IC50 [3],IC50 [4],"AC50 [5, 7]",AC50 ([5]; measured here: PEO4 viability),"z-score [6, 8]","z-score [6, 9]","AC50 [6, 10]","z-score [6, 11]","AC50 [6, 12]"
Nc1ncnc2c1c(-c1cccc(OCc3ccccc3)c1)cn2C1CC(CN2CCCC2)C1 (stereo not given),"24.1 µM [falling, partial curve]","3.41 µM [falling, full curve]","21.5 µM [falling, partial curve]","1.71 µM [falling, full curve]","11 µM [falling, partial curve, poor fit]","9.77 µM [falling, partial curve, poor fit]",0.101,-0.33,"16.6 µM [falling, partial curve]",0.063,"23.5 µM [falling, partial curve]"
O=C(O)C1(Cc2cccc(Nc3nccs3)n2)CCC(Oc2cccc(Cl)c2F)CC1 (stereo not given),"24.1 µM [falling, single point]","27.1 µM [falling, partial curve]","24.1 µM [falling, single point]","24.1 µM [falling, partial curve]","3.09 µM [falling, partial curve]","0.245 µM [falling, full curve]",0.262,-0.102,"0.833 µM [falling, full curve]",0.594,–
Cc1cccc(Nc2nc(-c3ccncc3)cs2)c1,"9.61 µM [falling, partial curve]","6.07 µM [falling, full curve]","17.1 µM [falling, partial curve]","10.8 µM [falling, partial curve]","19.5 µM [falling, partial curve]","17.4 µM [falling, partial curve]",-0.399,-0.937,"13.2 µM [falling, partial curve]",-0.414,"13.2 µM [falling, partial curve]"
Cc1ccc(C(N)=O)cc1Nc1nccc(-c2cn(C(C)C)c3cnccc23)n1,"24.1 µM [falling, partial curve]","24.1 µM [falling, partial curve]","24.1 µM [falling, partial curve]","24.1 µM [falling, partial curve]","4.9 µM [falling, full curve]","4.9 µM [falling, partial curve]",-0.317,0.468,"9.35 µM [falling, partial curve]",0.228,"9.35 µM [falling, full curve]"
CCCCCNC(=O)c1sc(=S)n2c1[nH]c(=O)c1ccc(C(=O)OC)cc12,"27.1 µM [falling, partial curve]",–,"24.1 µM [falling, partial curve]",–,–,–,–,–,–,–,–
c1ccc(-c2oc3ncnc(NC[C@@H]4CCCO4)c3c2-c2ccccc2)cc1,"24.1 µM [falling, partial curve]","24.1 µM [falling, partial curve]","24.1 µM [falling, partial curve]","24.1 µM [falling, partial curve]",–,–,-0.101,0.179,"23.5 µM [falling, single point]",0.334,"20.9 µM [falling, partial curve]"
Nc1ccc(-c2cnc(N)c(-c3ccc(Cl)cc3)c2)cn1,"19.2 µM [falling, partial curve]",–,"24.1 µM [falling, partial curve]",–,–,–,–,–,–,–,–
C=CC(=O)Nc1cccc(Nc2nc(Nc3ccc(OCCOC)cc3)ncc2F)c1,"21.5 µM [falling, partial curve]","21.5 µM [falling, partial curve]","19.2 µM [falling, partial curve]","24.1 µM [falling, partial curve]","5.49 µM [falling, partial curve]","6.92 µM [falling, partial curve]",–,–,–,–,–
O=C(Nc1ccccc1-c1cn2c(CN3CCNCC3)csc2n1)c1cnc2ccccc2n1,"7.64 µM [falling, full curve]","9.61 µM [falling, full curve]","30.6 µM [falling, partial curve]","8.57 µM [falling, full curve]","15.5 µM [falling, single point]","19.5 µM [falling, partial curve]",-0.586,-0.419,"16.6 µM [falling, partial curve]",-0.522,"29.6 µM [falling, single point]"
COc1ccc(-c2cc(-c3cnn(C)c3)cn3cncc23)cn1,"35 µM [falling, partial curve, poor fit]",–,"35 µM [falling, partial curve]",–,–,–,–,–,–,–,–
CCc1nc(C(N)=O)c(Nc2ccc(N3CCC(N4CCN(C)CC4)CC3)c(OC)c2)nc1NC1CCOCC1,"14.9 µM [falling, partial curve]","16.8 µM [falling, partial curve]",–,"11.9 µM [falling, partial curve]",–,"27.5 µM [falling, partial curve, poor fit]",–,–,–,–,–
CCN1CCN(Cc2ccc(Nc3ncc(F)c(-c4cc(F)c5nc(C)n(C(C)C)c5c4)n3)nc2)CC1,"13.6 µM [falling, partial curve]","12.1 µM [falling, partial curve]","17.1 µM [falling, partial curve]","15.2 µM [falling, partial curve]","11 µM [falling, partial curve]","15.5 µM [falling, partial curve]",–,–,–,–,–
Cc1ccc(CNC(=O)c2ccc3c(=O)[nH]c4c(C(=O)NC(C)C)sc(=S)n4c3c2)cc1,"24.1 µM [falling, single point]",–,"21.5 µM [falling, partial curve]",–,–,–,–,–,–,–,–
COc1cc(Nc2c(C#N)cnc3cc(OCCCN4CCN(C)CC4)c(OC)cc23)c(Cl)cc1Cl,"10.8 µM [falling, partial curve]","8.57 µM [falling, full curve]","12.1 µM [falling, partial curve]","10.8 µM [falling, partial curve]","3.47 µM [falling, full curve]","3.47 µM [falling, full curve]",-1.9,-0.876,"18.7 µM [falling, partial curve]",-0.592,"2.96 µM [falling, full curve]"
CC(C)N(CCCNC(=O)Nc1ccc(C(C)(C)C)cc1)C[C@H]1O[C@@H](n2cc(Br)c3c(N)ncnc32)[C@H](O)[C@@H]1O,"21.5 µM [falling, partial curve]","19.2 µM [falling, partial curve]","19.2 µM [falling, partial curve]","4.82 µM [falling, full curve]","21.9 µM [falling, partial curve, poor fit]","21.9 µM [falling, single point]",–,–,–,–,–
COc1ccc(CCNC(=O)c2ccc3c(=O)[nH]c4c(C(=O)NC5CCCC5)sc(=S)n4c3c2)cc1OC,"21.5 µM [falling, partial curve]",–,"21.5 µM [falling, partial curve]",–,–,–,–,–,–,–,–
Nc1cccc(-c2cc3c(Oc4cccc(O)c4)ncnc3[nH]2)c1,"24.1 µM [falling, partial curve]","34.1 µM [falling, single point]","24.1 µM [falling, partial curve]","21.5 µM [falling, partial curve]","27.5 µM [falling, single point]","15.5 µM [falling, single point]",-1.34,-0.522,"3.72 µM [falling, partial curve]",-0.928,"18.7 µM [falling, partial curve]"
CNC(=O)CN1CCC(Oc2cc3c(Nc4cccc(Cl)c4F)ncnc3cc2OC)CC1,"24.1 µM [falling, single point]","30.4 µM [falling, single point]",–,"24.1 µM [falling, partial curve]","11 µM [falling, partial curve]","1.95 µM [falling, partial curve, poor fit]",–,–,"18.7 µM [falling, partial curve]",–,"0.0209 µM [falling, full curve]"
CC1CC(=O)C2=C(O1)OC1(C)CCC3C(C)(C)C=CC(=O)C3(C)C1C2 (stereo not given),"14.9 µM [falling, partial curve]",–,"0.0942 µM [falling, full curve]",–,–,–,–,–,–,–,–
Nc1[nH]nc2nnc(-c3c(-c4ccccc4)nn4ccccc34)cc12,"17.1 µM [falling, partial curve]","15.2 µM [falling, partial curve]","21.5 µM [falling, partial curve]","19.2 µM [falling, partial curve]",–,–,-0.48,0.525,"14.8 µM [falling, partial curve]",-0.678,"16.6 µM [falling, partial curve]"
